Test results reported in the BET-seq Pho4 binding data (Le et al. 2018).
Some of the results follow. These are noisy estimates, calculated here from bound and input reads.

The sequences below were run against T1, Pho4 (S. cerevisiae) (UniProt P07270) (assay: relative binding free energy (BET-seq); higher = weaker binding). Settings: reference: library average.
T1 sequence: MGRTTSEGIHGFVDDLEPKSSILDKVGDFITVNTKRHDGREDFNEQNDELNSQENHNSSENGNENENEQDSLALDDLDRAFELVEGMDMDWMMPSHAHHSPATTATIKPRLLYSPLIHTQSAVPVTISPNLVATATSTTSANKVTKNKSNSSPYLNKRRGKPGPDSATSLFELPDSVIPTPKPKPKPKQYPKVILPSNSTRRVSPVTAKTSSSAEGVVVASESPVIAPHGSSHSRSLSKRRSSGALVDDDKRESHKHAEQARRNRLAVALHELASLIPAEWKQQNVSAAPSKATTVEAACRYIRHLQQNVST

| Sequence | relative binding free energy [kcal/mol] |
| --- | --- |
| TGATTCACGTGTTGGA | 0.34 |
| AGGGCCACGTGGCGTT | -0.17 |
| CGAGTCACGTGGTTTT | 0.1 |
| TGTGTCACGTGAGATT | 0.43 |
| GGGGCCACGTGGTCAT | -0.12 |
| TTGGGCACGTGGAAGG | -0.01 |
| TAGTCCACGTGGGAGT | 0 |
| CCTTTCACGTGGAAGT | 0.42 |
| TAGGTCACGTGGTGGG | 0.13 |
| GAATTCACGTGGGATT | 0.22 |
| TGTTGCACGTGGGGGT | -0.13 |
| TGTGACACGTGCGGAG | 0.08 |
| TGGTGCACGTGTAGGA | -0.04 |
| ATAGACACGTGGTTGC | -0.03 |
| AGTGACACGTGGTAGT | -0.09 |
| ATGCTCACGTGAGCGG | 0.42 |
| AAATTCACGTGGGTTG | 0.19 |
| GTGTGCACGTGAGTCC | 0.31 |
| GATCGCACGTGGTGAG | 0.07 |
| GGATTCACGTGGGTCT | 0.39 |
| TCAGACACGTGGGGAG | -0.07 |
| GAATGCACGTGAGAAG | 0.38 |
| GAACTCACGTGTTGGT | 0.34 |
| TGTGTCACGTGGTACG | 0.04 |
| TGGTTCACGTGACATT | 0.24 |

| Sequence | relative binding free energy [kcal/mol] |
| --- | --- |
| GTTGGCACGTGTCAGT | -0.11 |
| GACTTCACGTGTGAGT | 0.42 |
| GCTGGCACGTGGGTGG | -0.19 |
| TAGGGCACGTGAGCTT | 0.08 |
| TATCTCACGTGTGGAG | 0.25 |
| ATTATCACGTGGTCAT | 0.06 |
| TGTACCACGTGGGAGG | -0.14 |
| GATTGCACGTGGAGGT | 0 |
| GTCATCACGTGATGTG | 0.29 |
| TTTAGCACGTGGACGG | -0.24 |
| AATAGCACGTGGGGGC | -0.07 |
| TGGATCACGTGTATAC | 0.25 |
| ATCTGCACGTGGTTGG | -0.04 |
| CTTAACACGTGTATGG | -0.03 |
| AGGTTCACGTGTTAAG | 0.23 |
| AGCGGCACGTGAAGTT | 0.19 |
| GGTGTCACGTGGTTGT | 0.11 |
| TGCGGCACGTGAGTGC | 0.16 |
| ATGTACACGTGAGTTT | 0.41 |
| CATGTCACGTGTGGCG | -0.02 |
| GGAATCACGTGAGGGT | 0.23 |
| AATGTCACGTGATGCG | 0.19 |
| TAGCGCACGTGGTGCT | -0.14 |
| GTGTGCACGTGCCGGT | -0.08 |
| GGAGGCACGTGGTCGA | -0.19 |

| Sequence | relative binding free energy [kcal/mol] |
| --- | --- |
| TCTGGCACGTGTGTTC | -0.06 |
| TTGATCACGTGATTAA | 0.29 |
| AGCGCCACGTGGGTTG | -0.22 |
| TCTAGCACGTGTGAGG | -0.05 |
| GGCGGCACGTGATGGA | 0.15 |
| TCGTGCACGTGGGGAC | -0.05 |
| TGTCGCACGTGTGTAA | -0.21 |
| GGGTTCACGTGAAGGG | 0.57 |
| TTTGTCACGTGCGATG | 0.13 |
| AGGGGCACGTGTGCCT | -0.21 |
| CGGTTCACGTGTACGG | 0.39 |
| TGGGGCACGTGACGAG | 0.08 |
| AGTGTCACGTGGCGGA | 0.08 |
| TTAACCACGTGGTGTG | -0.1 |
| GATTGCACGTGTTAGG | 0.1 |
| TGGTACACGTGGACAG | 0.03 |
| TGAATCACGTGTGTCT | 0.19 |
| GGCACCACGTGGGGGG | -0.26 |
| CAGGCCACGTGAGGGG | 0.12 |
| GATGGCACGTGGGGAT | -0.03 |
| CATGTCACGTGTGTTG | 0.08 |
| AATTGCACGTGATTAT | 0.21 |
| TTCGGCACGTGAGATT | 0.27 |
| AGGTGCACGTGGAATA | 0.02 |
| ATTATCACGTGTATTG | 0.06 |

| Sequence | relative binding free energy [kcal/mol] |
| --- | --- |
| TAGTACACGTGTATAT | 0.06 |
| TAAAGCACGTGGGGTT | -0.16 |
| TGGGCCACGTGGTTGA | -0.2 |
| GCTTGCACGTGTGTAT | 0.09 |
| ATCGTCACGTGGGTTG | 0 |
| GTGTACACGTGTAGGC | 0.18 |
| AGGTGCACGTGGGCCT | -0.2 |
| AGGATCACGTGTACGT | 0.28 |
| AGTAGCACGTGACGAG | 0.27 |
| TCAGGCACGTGATGGA | 0 |
| GTAATCACGTGGGGAG | 0.11 |
| TATTTCACGTGTTTAA | 0.16 |
| GCGCGCACGTGTTAGG | -0.06 |
| TGTTACACGTGTGGTC | 0.23 |
| TTTTGCACGTGGGTCT | -0.09 |
| TTGGGCACGTGGGCAC | -0.22 |
| TGGGTCACGTGGTTCG | 0.09 |
| ATGCACACGTGTGAGG | 0.06 |
| TAATGCACGTGTGAGA | 0.07 |
| TATGTCACGTGATCTA | 0.31 |
| TTCGTCACGTGGTGAG | 0.09 |
| AGTGGCACGTGGTCGC | -0.25 |
| GTTATCACGTGCGGCG | 0.15 |
| CTAGCCACGTGGTGTG | -0.21 |
| TGTAGCACGTGGTTGA | -0.05 |

| Sequence | relative binding free energy [kcal/mol] |
| --- | --- |
| AGTGGCACGTGGTCGA | -0.24 |
| TTAGGCACGTGGGCTC | -0.21 |
| TCTATCACGTGTGGGG | 0.2 |
| TCTTTCACGTGTAAGT | 0.2 |
| GGGCTCACGTGATGGC | 0.55 |
| TGCGCCACGTGTGGGA | -0.18 |
| CGTGTCACGTGGCTAG | -0.01 |
| TCTGGCACGTGTGTTA | -0.03 |
| TATTTCACGTGGCTGT | 0.22 |
| TGCGGCACGTGGGGGC | -0.2 |
| GTGAGCACGTGTTTCG | -0.15 |
| TGGTGCACGTGGTGGC | -0.11 |
| TTATTCACGTGTATGA | 0.23 |
| TATAACACGTGCGTTT | -0.01 |
| CGGAGCACGTGAGGGG | 0.08 |
| GCTGTCACGTGGTTAT | 0.09 |
| GTTTTCACGTGCGGTC | 0.41 |
| AGTGTCACGTGGGCGC | -0.31 |
| GTTAACACGTGAAAGG | 0.36 |
| CGGCTCACGTGATTGG | 0.34 |
| TTCTGCACGTGGCGTT | -0.09 |
| CGGCTCACGTGGGAAT | 0.31 |
| AAGTTCACGTGATCTT | 0.32 |
| CGTTTCACGTGGTTAC | 0.23 |
| GAATGCACGTGGGGGT | -0.14 |

| Sequence | relative binding free energy [kcal/mol] |
| --- | --- |
| GAGGACACGTGAAAGT | 0.56 |
| AATGTCACGTGTGGAA | 0.18 |
| GGTAGCACGTGCAAGG | 0.08 |
| TTGTGCACGTGGACGC | -0.12 |
| CAGTTCACGTGTTTTA | 0.17 |
| TGGAGCACGTGTATGG | -0.04 |
| AGTGGCACGTGATCGG | -0.03 |
| TTGGTCACGTGTAAAA | 0.23 |
| GGGTTCACGTGGGTAA | 0.23 |
| CTTTGCACGTGATTGT | 0.09 |
| ATTATCACGTGCGGGG | 0.22 |
| CTAGGCACGTGAGTAG | 0.01 |
| TTATTCACGTGATCAT | 0.28 |
| GGTAACACGTGTCGGG | 0.11 |
| AATTACACGTGGGATG | 0.02 |
| GATGGCACGTGAGCGT | 0.06 |
| TTTTACACGTGAATGG | 0.45 |
| AAGGACACGTGTGCGG | -0.04 |
| TAGTTCACGTGAATGA | 0.42 |
| AAGGCCACGTGGGAAT | 0.01 |
| TCTTGCACGTGAAAGT | 0.23 |
